The supplement of paper PMC10338343
± gives the standard deviation. The list shows a part of the results, in another mix than the full data.

Tested on: MIWI (PIWIL1) piRISC loaded with piRNA #1 (30 nt)
Assay: pre-steady-state target cleavage rate (min^-1); MIWI and MILI are mouse PIWI proteins and EfPiwi is from a freshwater sponge; tags in brackets are library labels; higher = faster piRNA-guided slicing of the target
Conditions: guide: piRNA #1 5'p-UGAGGUAGUAGGUUGUAUAGUAUCCAGAGG; auxiliary factor: 500 nM mouse GTSF1
Method in brief: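 Three pooled Cleave-'n-Seq trials supplied the data, with k3 capped at 0.0001 min^-1. In each, […] transcribed, DNA-blocked target RNA library and 1 nM active affinity-purified piRISC with one synthetic guide reacted in HEPES–potassium acetate buffer at 33 °C for 0–8 or 0–960 min, with or without 500 nM GTSF1 partner protein. Uncleaved targets were sequenced and normalised to depth and to weakly complementary targets. A burst-and-steady-state fit provided the pre-steady-state cleavage rate.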
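Also: 1 nM active piRISC with 0.1 nM target library at 33 °C single turnover.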

| Sequence | pre-steady-state target cleavage rate |
| --- | --- |
| GGUCUGGAUACAAUACAACCAACUACCUCA | 0.112 ± 0.013 |
| GGAGACCUAACUAUACAACCUACUUCCUGA | 0.0085 ± 0.0052 |
| GGAGACGAUACUAUACAACCUGCUACCUCA | 0.884 ± 0.046 |
| GGAGACCUUACUAAACAACCUACUACGUCA | 0.45 ± 0.06 |
| GGAGACCUAACUAUACAACCUACUGCCUCA | 0.496 ± 0.065 |
| GGACUGGAUACUAUACAUCGUACUACCUCA | 0.4 ± 0.051 |
| GGAGACCAUACUAUUCAACCUACUUCCUCA | 0.248 ± 0.034 |
| GGAGAGGAAACUUUACAACCUACUACCUCA | 1.46 ± 0.1 |
| GGACUGGAUACUAUAGAACCAACUACCUCA | 0.0434 ± 0.006 |
| GCUCUGGAUACUAUACAAACUACUACCUCA | 1.11 ± 0.048 |
| GGAGACGAUUCUAUACAACCUACUACCACA | 1.57 ± 0.092 |
| GGAGACCUAACUAUUCAAGCUACUACCUCA | 0.297 ± 0.034 |
| CCUCUGAGAUACUAUACAACCUACUACCUCA | 0.572 ± 0.056 |
| GGACUGGAUACUAUUCAACCUACAACCUCA | 0.194 ± 0.029 |
| GGACUGGAUACUAAACAACCUAGUACCUCA | 0.319 ± 0.053 |
| GGAGACCAUUCUAUACAACCUACUACGUCA | 0.578 ± 0.041 |
| GGAGAGGAUACUAAACAACGUACUACCUCA | 0.172 ± 0.023 |
| GGAGACCUAACUACACAACCUACUACCUCA | 0.96 ± 0.13 |
| GCUCUGGAUACUAAACAUCCUACUACCUCA | 1.25 ± 0.081 |
| GGAGACCUAUCUAUACUACCUACUUCCUCA | 0.0039 ± 0.0024 |

| Sequence | pre-steady-state target cleavage rate |
| --- | --- |
| GGAGACCAUACUAUACAUCCUACUAGCUCA | 0.483 ± 0.039 |
| GGACUGGAUACAAUACAACCUACUAGCUCA | 0.104 ± 0.019 |
| GGAGACCUGACUAUACAACCUACUACCUCA | 1.27 ± 0.17 |
| GGAGAGGAUACUUUACAAGCUACUACCUCA | 0.429 ± 0.033 |
| CCUCUGGAUACUUUACUACCUACUACCUCA | 1.26 ± 0.095 |
| GGAGACCUAACUAUACAACCUACUACCUAA | 0.955 ± 0.1 |
| CCUCUCGAUACUAUACAACCUACUACGUCA | 1.95 ± 0.14 |
| GGACUGGAUACUAUACAACCUCCUACCUCA | 0.801 ± 0.052 |
| GGACUGGAUACUAUACAACCUACUACCUUA | 0.844 ± 0.075 |
| GGAGUGGGUACUAUACAACCUACUACCUCA | 1.49 ± 0.092 |
| GGUCUCGAUACUAUACAACCUACUACCACA | 0.758 ± 0.064 |
| GGAGACGAUACUAUACAACCUACUGACCUCA | 0.69 ± 0.04 |
| GGAGACCUUACUAUACAAGCUACUUCCUCA | 0.416 ± 0.033 |
| GGAGACGAUACUAUUCAACCUACUACCUCA | 1.54 ± 0.093 |
| GGAGAGGAUACUAUACAACCUAAUACCUCA | 0.651 ± 0.05 |
| GGACUGGAUACUAUACAACCUACUACCUA | 0.543 ± 0.1 |
| GGAGACGAUACUAUAGAACCUACUACCUCA | 1.14 ± 0.066 |
| GGUCUGGAUACUAUACUACGUACUACCUCA | 0.469 ± 0.049 |
| CCUGUGGAUACUAUACUACCUACUACCUCA | 1.51 ± 0.096 |
| GGAGUGGAUACUAUACAACCUACUACGUCA | 0.398 ± 0.034 |

| Sequence | pre-steady-state target cleavage rate |
| --- | --- |
| GGAGAGCAUACUAUACAAGCUACUACCUCA | 0.883 ± 0.037 |
| GGAGACGAUACUAUACAACCUACUAACCUCA | 1.19 ± 0.057 |
| GGAGAGUAUACUAUACAACCUACUACCUCA | 1.86 ± 0.13 |
| GGUCUGGAUACUAUACAACCUACUUCGUCA | 0.00248 ± 0.0021 |
| GGAGAGGAUACUAUAAAACCUACUACCUCA | 1.26 ± 0.057 |
| GGAGACGAUUGUAUACAACCUACUACCUCA | 0.11 ± 0.013 |
| GGAGACCUUACUAUACAACGUACAACCUCA | 0.0817 ± 0.018 |
| GGACUGGAUUCUAUAGAACCUACUACCUCA | 1.41 ± 0.09 |
| GGUCUGGAUACUAUACAACCUACUACGAGA | 0.224 ± 0.1 |
| GGAGACGAUACUAUAGAACCUACAACCUCA | 0.00664 ± 0.0041 |
| GGAGACCUUAGUAUACAUCCUACUACCUCA | 0.152 ± 0.021 |
| GGAGACGAUACUAUACAACCUCCUACCUCA | 0.915 ± 0.039 |
| GGACAGGAUAGUAUACAACCUACUACCUCA | 0.322 ± 0.035 |
| GGAGACCUAUGUAUACAACCUGCUACCUCA | 0.0174 ± 0.0032 |
| GGAGAGGAUAGUUUACAACCUACUACCUCA | 0.163 ± 0.024 |
| GGAGUGGAUACUAUACAACCAACUUCCUCA | 0.0088 ± 0.0024 |
| GGACUGGAUACUUUACAACCUACUACCUCA | 1.53 ± 0.1 |
| GGAGAGGAUAGUAUACAACCUACUACCUGA | 0.147 ± 0.025 |
| GGACUGCAUACUAUACAUCCUACUACCUCA | 1.33 ± 0.13 |
| GGAGACCUAUGUAUACAAGGUACUACCUCA | 0.00401 ± 0.0024 |
